# Laboratory results taken from PubChem BioAssay AID2101 (National Center for Advancing Translational Sciences (NCATS), 2009).
# The whole screen tested about 330,000 compounds, of which about 300 (0.091%) were called active. Inconclusive results, whose numbers are uncertain, are shown with a selection of clear calls. Calls come from the whole dose curve; as a rule, active = well fitted inhibition curve with a large enough effect; inconclusive = small, poorly fitted or top-dose-only effect, or effect the other way, or another doubt; inactive = no such curve, though single readings can be large or run the other way. Potencies of inconclusive entries are left out as doubtful fits.
# Molecular target: Lysosomal acid glucosylceramidase (Homo sapiens) (UniProt P04062)
# Experiment: qHTS Assay for Inhibitors and Activators of N370S glucocerebrosidase as a Potential Chaperone Treatment of Gaucher Disease;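 for activity change, negative = inhibition: 0% = full enzyme activity and -100% = no enzyme basal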
# Conditions: N370S GC spleen homogenate, 4MU-glucoside fluorescence; activity change, negative = inhibition: at 59.4 µM (top of the series) unless noted
# Potency is the fitted concentration of half-maximal effect.
SMILES,Potency,"activity change, negative = inhibition"
COc1ccc(N(CC(=O)NCc2cccs2)S(=O)(=O)c2c(C)n[nH]c2C)cc1,"inconclusive [inhibitor, single point]",
Cc1cc2ccccn2c1C(=O)c1ccc([N+](=O)[O-])cc1[N+](=O)[O-],inactive,
Cc1ccccc1Nc1c(-c2ccc(N3CCOCC3)cc2)nc2ncccn12,"inconclusive [inhibitor, partial curve]",
CCOC(=O)c1cnc(SCC(=O)Nc2ccccc2C(=O)OC)nc1N,"inconclusive [activator, single point]",
COc1ccccc1/C=C/C(=O)c1ccccc1,"inconclusive [activator, single point]",
O=S(=O)(c1ccc(NCC2CCCCC2)nc1)N1CCOCC1,inactive,
CC1CC(C)CN(CCCNC(=O)c2ccc3nc(N4CCCCC4)sc3c2)C1 (configuration not stated),"inconclusive [inhibitor, partial curve, poor fit]",
COc1ccc(CNCc2cccc3ccccc23)cc1,"inconclusive [inhibitor, full curve, poor fit]",
NC(=O)Cc1ccc(Nc2nnc(-c3ccc(O)cc3)c3ccccc23)cc1,"inconclusive [inhibitor, partial curve]",
CC1=C(C)CC(C(=O)NNC(=O)c2cccc(Cl)c2)C(C(=O)O)C1 (configuration not stated),"inconclusive [inhibitor, single point]",
Cn1c(CNc2nc3ccccc3n2C)nc2ccccc21,inactive,
Cc1c(OC(=O)CNC(=O)OC(C)(C)C)ccc2c3c(c(=O)oc12)CCC3,"inconclusive [activator, partial curve]",
CC1Cc2ccccc2N1C(=O)CO/N=C/c1ccc(OC(F)F)cc1 (configuration not stated),"inconclusive [inhibitor, single point]",
O=C1CC(C(=O)Nc2ccccc2)S/C(=N\N=C\c2ccco2)N1 (configuration not stated),inactive,
Cn1cc(CN2CCN(c3ncccn3)CC2)c(-c2cccc(Cl)c2)n1,inactive,
COc1ccc2sc(N(CCCN(C)C)C(=O)c3ccc(S(=O)(=O)N(C)C4CCCCC4)cc3)nc2c1,"inconclusive [inhibitor, partial curve]",
Cc1ccc2ccccc2c1[N+](=O)[O-],inactive,
COCOc1cc(OC)ccc1C(=O)/C=C/c1ccc2c(c1)OCO2,"inconclusive [inhibitor, single point]",
COc1ccc2[nH]cc(CCNc3ccnc(-c4ccccc4Cl)n3)c2c1,"inconclusive [inhibitor, partial curve]",
CCSc1nnc(NC(=O)CSc2nc3c(c(=O)n2-c2ccccc2OC)SCC3)s1,"inconclusive [activator, full curve]",
Cc1ccc(C(=O)NNc2cc(N3CCCC3)nc(N3CCCC3)n2)cc1,inactive,
CC(C)c1ccc(OCC(O)CNC(C)c2ccccc2)cc1 (configuration not stated),"inconclusive [inhibitor, single point]",
Cc1ccc(S(=O)(=O)Nc2ccc(N=Nc3ccc(O)cc3)cc2)cc1,"inconclusive [inhibitor, partial curve]",

SMILES,Potency,"activity change, negative = inhibition"
CCN1C(=O)[C@H]2[C@@H](c3ccc(C)cc3)N3C(=O)N(c4ccc(OC)cc4)C(=O)[C@@]3(Cc3ccc(Cl)cc3)[C@H]2C1=O,"inconclusive [inhibitor, single point]",
CC(=O)NNc1nc2ccccc2s1,inactive,
COc1cc(C2c3cc4c(cc3C(OC3OC5COC(c6cccs6)OC5C(O)C3O)C3COC(=O)C23)OCO4)cc(OC)c1O (configuration not stated),inactive,
Cc1sc2ncnc(Nc3ccc(O)cc3)c2c1C,active: 11.2 µM,
CS(=O)(=O)n1nc(OC(=O)c2cccc3ccccc23)cc1N,inactive,
CCCCc1nc(N2CCN(C(=O)c3ccco3)CC2)c(C#N)c2c1CCCC2,"inconclusive [activator, partial curve]",
CCSc1nnc(NC(=O)[C@@H](NC(=O)c2cccc(C)c2)C(C)C)s1,"inconclusive [activator, single point]",
COc1ccc(NC(=O)NCCCN2CCCCC2C)cc1 (configuration not stated),"inconclusive [inhibitor, single point]",
COc1ccc(C(=O)NNC(=S)NC(=O)C(C)(C)C)cc1,inactive,
O=C(COc1ccccc1Cl)Nc1cc(Cl)ccc1O,"inconclusive [inhibitor, single point]",
Cc1ccc2cc(CN(Cc3ccco3)C(=O)NC3CCCCC3)c(=O)[nH]c2c1C,"inconclusive [activator, single point]",
CC(C)(C)[Si](C)(C)c1c2c(nc3ccc(OCc4ccccc4)cc13)-c1cccc(=O)n1C2,"inconclusive [activator, partial curve]",
CCOc1ccc(N(CC(=O)O)S(=O)(=O)c2ccc(OC)c(OC)c2)cc1,"inconclusive [inhibitor, full curve, poor fit]",
COC(=O)C1C(=O)C=C(N2CCOCC2)CC1(C)C (configuration not stated),"inconclusive [inhibitor, single point]",
CCCc1cc(=O)[nH]c(Nc2ccc(O)cc2)n1,inactive,
COCCNC(=S)N(CCN(C)C)Cc1cc2cc3c(cc2[nH]c1=O)OCO3,"inconclusive [activator, single point]",
Cc1cccc(/C=N/NC(=O)c2cc(Br)ccc2OCc2ccccc2)n1,"inconclusive [activator, partial curve]",
CNc1oc(-c2ccccc2)nc1S(=O)(=O)c1ccc(C)cc1,"inconclusive [inhibitor, single point]",
CCC1=Nc2cc(C(=O)NCCCN3CCOCC3)ccc2Sc2ccc(Br)cc21,inactive,
CCCC(C(=O)NC(C)(C)C)N(Cc1ccccc1Cl)C(=O)c1snc(C(N)=O)c1N (configuration not stated),"inconclusive [activator, single point]",
CCOc1ccc(N(CC(=O)Nc2ccc(OC)cc2)S(=O)(=O)c2c(C)[nH]c(=O)[nH]c2=O)cc1,"inconclusive [inhibitor, partial curve]",
CCCCNC(=O)CSc1nnc(Cc2ccc(Cl)c(Cl)c2)c(=O)[nH]1,inactive,
CCOC(=O)/C(=N\Nc1ccccc1Cl)N1CCN(Cc2ccccc2)CC1,"inconclusive [inhibitor, partial curve]",

SMILES,Potency,"activity change, negative = inhibition"
CCOc1ccc(C2C(C#N)=C(N)N(c3sc4c(c3C#N)CCCC4)C3=C2C(=O)CCC3)cc1 (configuration not stated),"inconclusive [activator, partial curve]",
Cc1cc(C)c(OCC(=O)Nc2cccc(NC(=O)c3ccco3)c2)c(Br)c1,inactive,
CCN(CC(=O)Nc1ccc(Cl)c(C(F)(F)F)c1)CC(=O)NC1CCS(=O)(=O)C1 (configuration not stated),"inconclusive [inhibitor, single point]",
CCCc1nc2oc3c(N4CCNCC4)ncnc3c2c2c1CCCC2,,inconclusive: 25.9% [activator]
Nc1cc(OCC(F)(F)F)cc([N+](=O)[O-])c1,inactive,
CCOC(=O)c1c(NC(=O)c2nn(CC)cc2Br)c(C#N)nn1-c1ccccc1,"inconclusive [activator, partial curve]",
COc1cccc(OC)c1-c1cc(C(=O)NC2(C(=O)O)C3CC4CC(C3)CC2C4)nn1-c1ccc(C(=O)N(C)CCCN(C)C)cc1C(C)C (configuration not stated),inactive,
Cc1c(C(=O)NCc2ccccc2F)oc2ccccc12,"inconclusive [activator, partial curve]",
CCOc1ccc(Nc2nc(Cc3nnc(SCC(=O)NC4CCCCC4)n3C)cs2)cc1,inactive,
COc1ccccc1NC(=O)c1cccc(S(=O)(=O)N2CCN(Cc3ccccc3)CC2)c1,"inconclusive [inhibitor, single point]",
O=C(COC(=O)CCCC1=NS(=O)(=O)c2ccccc2N1)Nc1ccc(Br)cc1,"inconclusive [inhibitor, partial curve]",
CC1CCCN(Cc2c(O)ccc3c(=O)c(-c4nc5ccccc5s4)c(N)oc23)C1 (configuration not stated),"inconclusive [inhibitor, partial curve]",
CC1CN(c2oc(-c3cccs3)nc2C#N)CC(C)O1 (configuration not stated),"inconclusive [activator, single point]",
CCOc1cc(/C=N/NC(=O)CN(CCc2ccccc2)S(=O)(=O)c2ccc(NC(C)=O)cc2)ccc1O,"inconclusive [inhibitor, partial curve]",
COc1ccc(-c2oc3ncnc(NCCCN(C)C)c3c2-c2ccc(OC)cc2)cc1,"inconclusive [inhibitor, partial curve]",
Cc1cccc(CNc2ncnc3ccc(-c4ccccc4CN(C)C)cc23)c1,"inconclusive [inhibitor, single point]",
CN(C)CCCN(C(=O)CCS(=O)(=O)c1ccccc1)c1nc2cc3c(cc2s1)OCO3,inactive,
CCNc1ncc2nc(-c3cc(F)cc(F)c3)c(=O)n(CCOC)c2n1,"inconclusive [activator, partial curve]",
CCc1nc(SCC(=O)Nc2ccccc2OC)c2c(C)c(C)sc2n1,"inconclusive [activator, single point]",
CCOC(=O)c1c(NC(=O)C2=C(C)NC(=S)NC2c2ccc(F)cc2F)sc(C)c1C (configuration not stated),"inconclusive [activator, partial curve]",
CCN(CC)c1ccc(C(=O)OCC(=O)Nc2ccccc2-c2ccccc2)cc1,"inconclusive [activator, partial curve]",
